From patent US12606546B2, “Small molecule inhibitors of calcium channel activity and uses thereof” (Arizona Board of Regents on Behalf of the University of …, priority 2020, dated 2026)

Tested on: high voltage activated calcium channels
Test: Fura-2AM calcium imaging, 90 mM KCl-evoked Ca2+ influx in DRG neurons
Conditions: 20 μM overnight, rat DRG neurons, relative to 0.01% DMSO

Cc1ccc(C(c2nnnn2-c2c(C)cccc2C)N2CCN(C(=O)c3ccco3)CC2)s1 (stereo not shown) [5aa, 1-{[1-(2,6-dimethylphenyl)-1H-1,2,3,4-tetrazol-5-yl](5-methylthiophen-2-yl)methyl}-4-(furan-2-carbonyl)piperazine]
inhibition of Ca2+ influx when DRGs were depolarized with 90 mM KCl: ~60%
